Measurements as given in ChEMBL document CHEMBL1201862, “PubChem BioAssay data set” (2004).

Tested on: NCI-H322M
Experiment: NCI anticancer screen, dose series, 48 h

Row | Compound | GI50
1 | O=C(O)CSc1nnc(COc2ccc(Cl)cc2)n1-c1ccccc1 | inactive: > 100 µM
2 | COC(=O)C1=C(C(=O)OC)SC(=C(/N=N/c2ccccc2)c2ccccc2)S1 | inactive: > 100 µM
3 | O=C(O)/C=C\C(=O)Nn1c(Cc2ccc(Cl)cc2)n[nH]c1=O | inactive: > 100 µM
4 | CCCCOC(=O)Nc1ccc(S(=O)(=O)Nc2ccccc2Cl)cc1 | inactive: 25 µM
5 | CC(=O)CC(=O)/C=C/c1cccs1 | inactive: 51.4 µM
6 | O=C(O)C12CCCCC1CCCC2 (stereo not given) | inactive: > 100 µM
7 | CC(NC(=O)OCc1ccccc1)NC(=O)C(CC(=O)OC(C)(C)C)NC(=O)OC(C)(C)C (stereo not given) | inactive: > 100 µM
8 | O=c1[nH]nc(-c2cccc([N+](=O)[O-])c2)[nH]1 | inactive: > 100 µM
9 | CCOC(=O)/C(Cl)=C(\C)Nc1nc2c(ccc3ccccc32)s1 | inactive: > 10 µM
10 | CCCCCCCCCCOC(=O)c1cc[n+](C)cc1 | inactive: 17.7 µM
11 | O=c1[nH]c(N/N=C\C(O)C(O)C(O)CO)nc2ccccc12 (stereo not given) | inactive: > 100 µM
12 | Fc1ccc(C(=C2CCN(CCc3ccc4[nH]c(=S)[nH]c4c3)CC2)c2ccc(F)cc2)cc1 | inactive: 11.3 µM
13 | Cc1cc(C)nc(NS(=O)(=O)c2ccc(Nc3c4ccccc4nc4c(C(=O)NCCN(C)C)cccc34)cc2)n1 | inactive: 4.27 µM
14 | COc1ccc(C(=O)c2ccc(-n3cc(/C=C/[N+](=O)[O-])c4ccccc43)cc2)cc1 | inactive: > 100 µM
15 | C[Si](C)(C)OC1CC(=O)OC1n1cc(F)c(=O)[nH]c1=O (stereo not given) | inactive: > 34.4 µM
16 | O=C1NCC2(CCN(Cc3ccccc3)CC2)N1 | inactive: > 100 µM
17 | OC(c1ccccc1)c1c(-c2ccccc2)[nH]c(-c2ccccc2)c1C(O)c1ccccc1 (stereo not given) | inactive: 4.65 µM
18 | CC1=CC(=O)C(=CN2C(=O)/C(=C\c3cccnc3)NC2=S)C(=O)O1 | inactive: > 100 µM
19 | CCOC(=O)C1=CNC(C(=O)OCC)C1c1cccn1-c1ccccc1 (stereo not given) | inactive: 32.8 µM
20 | NC(=O)NNCc1ccccc1 | inactive: > 100 µM
21 | O=C(CO[N+](=O)[O-])OCC(=O)c1ccccc1 | inactive: > 100 µM
22 | CCC1CN2CCc3cc(OC)c(OC)cc3C2CC1CC1c2cc(OC)c(OC)cc2CCN1C(=O)C(Cc1c[nH]c2ccccc12)NC(=O)OC(C)(C)C (stereo not given) | inactive: 5.83 µM
23 | COC(=O)C[C@H](COCc1ccccc1)NC(=O)C[C@H](COCc1ccccc1)NC(=O)C[C@H](COCc1ccccc1)NC(=O)OC(C)(C)C | inactive: 21.9 µM
24 | CC(C)(C)c1cc(CC2C(=O)c3ccccc3C2=O)cc(C(C)(C)C)c1O | inactive: 2.88 µM

Row | Compound | GI50
25 | O=C1c2ccccc2C(=O)c2cc(/N=N/c3c(O)ccc4ccccc34)ccc21 | inactive: > 100 µM
26 | COC(OC)C1OC(CO)C(n2cc(F)c(=O)[nH]c2=O)C1O (stereo not given) | inactive: > 100 µM
27 | COC(=O)C(=O)C(C(=O)C=C(C)C)C(=O)C(=O)Nc1cccc(C(C)=O)c1 (stereo not given) | inactive: > 100 µM
28 | CC(=O)Nc1ccc(-c2nnc(SCC(=O)Nc3cccc(Cl)c3)o2)cc1 | inactive: 19.1 µM
29 | CC(C)C(OC(=O)c1ccc(NCc2cc(O)ccc2O)cc1)C(C)C | inactive: 5.12 µM
30 | CO[C@H]1O[C@@H]2CO[C@@H](c3ccccc3)O[C@H]2[C@@H]2C/C=C\CCC[C@@]12O | inactive: 32.7 µM
31 | CC(=O)NC(=N/N=C1/C(=O)Nc2ccc(C)cc21)NC(C)=O | inactive: > 100 µM
32 | CC(=O)OC1COC(n2c3ccccc3c3ccc4c5ccccc5[nH]c4c32)C(OC(C)=O)C1OC(C)=O (stereo not given) | inactive: 52 µM
33 | Cc1cc2c(C)nn(Cc3ccc(Cl)cc3Cl)c2c(C#N)c1C | inactive: > 100 µM
34 | O=C(Oc1ccc(OC(Oc2ccccc2)c2ccccc2)cc1)c1ccccc1 (stereo not given) | inactive: > 31.6 µM
35 | O=c1[nH]ncc2[nH]c3c4ccccc4ccc3c12 | inactive: 29.4 µM
36 | c1ccc2c(c1)SCCc1cn[nH]c1-2 | inactive: > 100 µM
37 | C=C1C(=O)C([Si](C)(C)C)=C2C=C(C)C3(CC3)C12C (stereo not given) | inactive: > 100 µM
38 | Cc1ncc([N+](=O)[O-])n1CC[N+](C)([O-])CCCCn1ccnc1[N+](=O)[O-] (stereo not given) | inactive: > 100 µM
39 | O=C(CSc1nnc(-c2ccc(/N=C\c3ccc(Cl)cc3)cc2)o1)Nc1ccc(Cl)cc1Cl | inactive: 29.5 µM
40 | C=CCc1cc(-c2cc(CC=C)c(O)c(CN(CC)CC)c2)cc(CN(CC)CC)c1O | inactive: 48.6 µM
41 | Br[Se]c1ccccn1 | inactive: 16 µM
42 | C=CC(=O)N1C/C(=C\c2ccc(F)cc2)C(=O)/C(=C/c2ccc(F)cc2)C1 | inactive: 1.15 µM
43 | O=P12N(CCN1c1ccccc1)CCN2c1ccccc1 | inactive: > 100 µM
44 | COC(=O)C(C(=O)C(=O)NC1Nc2ccc(C)cc2S1)c1nc2ccc(Cl)cc2nc1O (stereo not given) | inactive: > 100 µM
45 | CCCCN(CC)C(=O)C1=C(C)NC(C)=C(C(=O)N(CC)CCCC)C1 | inactive: > 100 µM
46 | COc1cc(OC)c2c(O)c(S(=O)(=O)c3ccc(C)cc3)c(=O)oc2c1 | inactive: > 100 µM
47 | Cc1ccc(S(=O)(=O)OCCOCCOCCOCCOCCOS(=O)(=O)c2ccc(C)cc2)cc1 | inactive: 26.7 µM
48 | C[n+]1ccc2/c(=C\C#N)c3ccccc3n21 | inactive: 23.9 µM

Row | Compound | GI50
49 | Nc1ncnc2c1nnn2C1OC(CO)C(O)C1O (stereo not given) | inactive: 5.47 µM
50 | O=[N+]([O-])c1ccc(/C=N/n2c(S)nnc2CCc2nnc(S)n2/N=C/c2ccc([N+](=O)[O-])o2)o1 | inactive: 73.3 µM
51 | COC(OC)C1OC(CO)C(n2ccc(N)nc2=O)C1O (stereo not given) | inactive: > 100 µM
52 | O=C(NCC(=O)N1CCOC1=O)OCc1ccccc1 | inactive: > 100 µM
53 | COC(=O)c1cc(NC(=O)Cc2c[nH]c3ccccc23)cn1C | inactive: > 100 µM
54 | O=C1NC(N2CCCCC2)=N/C1=C\c1ccc(Cl)cc1 | inactive: 58.6 µM
55 | Nc1ccc(C(=O)N/C(=C\c2cccc([N+](=O)[O-])c2)c2nc3c(O)nc(S)nc3[nH]2)cc1 | inactive: > 100 µM
56 | Cc1ccc(C2NC(=N)NC3=C2CCOc2c3ccc3ccccc23)cc1 (stereo not given) | inactive: 38.6 µM
57 | COc1cc2ncnc(NS(=O)(=O)c3cc4ccccc4s3)c2cc1OC | inactive: > 100 µM
58 | S=C1CSc2c(cnc3ccccc23)N1 | inactive: > 100 µM
59 | CC1SC(c2ccccc2)N(Nc2c3ccccc3nc3ccccc23)C1=O (stereo not given) | inactive: 97.1 µM
60 | N#Cc1c(N)nc2c(C#N)c(N)cc3c2c1Oc1ccccc1-3 | inactive: > 100 µM
61 | COc1ccc(/C(=N/NC(N)=O)C2(O)C(=O)Nc3ccc([N+](=O)[O-])cc32)cc1 (stereo not given) | inactive: 76 µM
62 | COC(=O)c1c(C)c2c(c(C)c1O)OC(=O)c1c(C)cc(O)c(C=O)c1O2 | inactive: > 100 µM
63 | O=C(/C=C/c1ccc(Cl)c(Cl)c1)c1cccc2ccccc12 | inactive: 16.2 µM
64 | c1ccc(-c2csc3ncn4cnnc4c23)cc1 | inactive: > 10 µM
65 | CC1=NC2(C(=O)O)C3(C(=O)O)N=C(C)OC3(C(F)(F)F)C2(C(F)(F)F)O1 (stereo not given) | inactive: > 100 µM
66 | O=C(O)c1ccc(C2C(=O)N[C@@H]3CCC[C@H]23)cc1 (stereo not given in full) | inactive: > 100 µM
67 | Cc1cc(C)nc(SCCc2cccc[n+]2C)n1 | inactive: > 100 µM
68 | C=C1CC(Cn2ccc(=O)[nH]c2=O)(c2ccc(OC)cc2)OC1=O (stereo not given) | inactive: 33.9 µM
69 | COc1cc(OC)nc(NC(=O)NS(=O)(=O)c2cccc3ncn(C)c(=O)c23)n1 | inactive: > 100 µM
70 | COc1cccc2nc3cc(C)c(C)cc3nc12 | inactive: > 100 µM
71 | CC12O[C@H](c3ccccc3)[C@H](c3ccccc3)N1C(=O)C1(C(=O)OCc3ccccc3)CC12 (stereo not given in full) | inactive: > 100 µM
72 | SC1=NC2(CCCCCC2)NN1c1ccccc1 | inactive: 15.2 µM

Row | Compound | GI50
73 | COc1ccccc1/C=C/C1=NN(c2cccc(S(=O)(=O)O)c2)C2(C1)SCC(=O)N2c1nc2ccccc2s1 (stereo not given) | inactive: > 100 µM
74 | c1ccc(-c2nnc(SCc3c[nH]c4ccccc34)n2-c2ccccc2)cc1 | inactive: 28.1 µM
75 | CCOC(=O)C1C(=O)c2cccc(OC)c2C2COC(=O)N12 (stereo not given) | inactive: > 100 µM
76 | Cc1cc(NC(=O)NC(=O)c2ccccc2[N+](=O)[O-])ccc1Oc1ncc(Cl)cn1 | active: 0.105 µM
77 | CC(=O)C1C(=O)C(=O)N(c2ccccc2C(C)C)C1=O (stereo not given) | inactive: > 100 µM
78 | CC(=O)CC1(O)C(=O)c2c(Br)sc(Br)c2C1=O | inactive: > 100 µM
79 | C=CC[C@H]1[C@@H](O[Si](C)(C)C(C)(C)C)[C@H](n2ccc(=O)[nH]c2=O)O[C@@H]1CO[Si](C)(C)C(C)(C)C | inactive: 2.12 µM
80 | O=C1CN(C(=O)c2ccccc2)Cc2[nH]c3ccccc3c21 | inactive: > 100 µM
81 | Nc1nnc2c(-c3ccccc3)n[nH]c2n1 | inactive: 49.7 µM
82 | O=C1c2ccccc2C(=O)N1n1c(Cc2ccccc2)n[nH]c1=O | inactive: > 100 µM
83 | CCN(CC)CCn1nc(N)c2nc3cc(Cl)ccc3nc21 | inactive: 91.2 µM
84 | CC(C)(C)C1CCC2(CC1)c1[nH]c3ccccc3c1C1(CCC(C(C)(C)C)CC1)c1[nH]c3ccccc3c12 (stereo not given) | inactive: > 100 µM
85 | CC1=NN(C(=O)c2ccc(Cl)cc2)C(=O)C1/N=N/c1ccc(S(=O)(=O)Nc2ncccn2)cc1 (stereo not given) | inactive: 57.8 µM
86 | CCOC(=O)C(O)Cc1cnc2ccccc2n1 (stereo not given) | inactive: > 100 µM
87 | N#Cc1c(Cl)nc2ccccc2c1N=[N+]=[N-] | inactive: 3.42 µM
88 | N#CSC1CCCCNC1=O (stereo not given) | inactive: 16.3 µM
89 | CCOc1nc2c(N3CCCC3)nc(N3CCNCC3)nc2nc1NCc1ccccc1 | inactive: 1.56 µM
90 | CN(C(=O)C12C3C4C5C3C1(C(=O)C13C6C7C8C6C1C8C73)C5C42)C(C)(C)C (stereo not given) | inactive: > 50 µM
91 | O=P1(c2ccccc2)C2=CCC=CC2C(c2ccccc2)N1Cc1ccccc1 (stereo not given) | inactive: 17.6 µM
92 | CCCCn1c2c(n(CCCC)c1=S)-c1c(n(CCCC)c(=S)n1CCCC)SSSS2 | inactive: > 67.9 µM
93 | O=C(O)COc1cc(-c2ccccc2)nc2cc(F)ccc12 | inactive: > 100 µM
94 | CN(C)c1ccc(-c2ccc(N(C)C)c3n[se]nc23)c2n[se]nc12 | inactive: > 100 µM
95 | Cc1ccc(C2=Nc3cccc4cccc(c34)N2)cc1 | inactive: > 100 µM

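Five concentrations, 48 hours, 96-well plates. At the GI50, growth is halved.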 Calls of active or inactive are those of the source. No stated cut-off is given here; in the data, active = GI50 up to about 1.1 µM and inactive = higher.
